# Results taken from PubChem BioAssay AID434955 (Southern Research Specialized Biocontainment Screening …, 2010).
# The other results are listed elsewhere or left out. Further columns of the screen follow, without active or inactive calls. The list favours compounds with an active or inconclusive main result.
# Assay: beta-lactam sensitization of Mtb H37Rv, H37Rv (AID 434955);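 also: growth measured after seven days incubation then overnight dye step; 0% = bacteria only wells and 100% = bacteria with antibiotic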
# Details: M. tuberculosis H37Rv growth with meropenem, percent inhibition; measured here: primary screen without meropenem; at 25 µM
row,SMILES,inhibition [%]
1,O=c1cc(-c2ccccc2)[nH]c2nc3ccccc3n12,30.1
2,O=C(NCc1ccc(F)cc1)c1cc(S(=O)(=O)N2CCOCC2)ccc1F,3.08
3,CCOc1ccc(-c2cccc(NC(=O)COc3ccc(Cl)cc3)c2)nn1,4.51
4,O=C(OCC(=O)N1CCN(C(=O)c2ccco2)CC1)c1cc(-c2ccco2)nc2ccccc12,6.06
5,CC(=O)Nc1nonc1-c1nc2ccccc2n1CCC(C)C,34.2
6,COCCn1c(=NC(=O)CCS(=O)(=O)c2ccccc2)sc2ccccc21,-2.08
7,COc1ccccc1NC(=O)CN(Cc1ccco1)C(=O)c1cccs1,-10.4
8,CC1(C)C2CC=C(/C=N/NC(=O)c3ccccc3O)C1C2 (stereo not drawn),17
9,O=C(CCN1C(=O)C2C3CCC(C3)C2C1=O)Nc1cccc(Cl)c1 (stereo not drawn),10.3
10,O=C(Cc1cccs1)N(Cc1cccs1)C1(C(=O)NC2CCCC2)CCCCC1,8.88
11,Cc1cc2nnc(SCc3ccccc3)n2c(N)n1,-1.32
12,O=C(NCc1ccccc1)C1CCN(c2nc(-c3ccccc3)nc3c2CCC3)CC1,0.47
13,CCCCN=C1CC(C)(C)CC(=O)/C1=C(/O)CCC,-2.63
14,O=C(NCC1COCCO1)c1ccc2nc(Cc3cccc(Cl)c3)oc2c1 (stereo not drawn),3
15,CC(C)c1nc(SCC(=O)NC2CCCC2)c2c(=O)n(C)c(=O)n(C)c2n1,8.51
16,CCN(CC)c1ccc(NC(=O)Cn2ncc3c(C)n(Cc4ccccc4F)c(C)c3c2=O)c(C)c1,-9.67
17,O=C(N/N=C/c1ccco1)c1cccc([N+](=O)[O-])c1,-1.22
18,CCOc1nnnc2c1sc1nc(N3CCOCC3)c3c(c12)CCCC3,4.77
19,CC(C)(C)OC(=O)N[C@@H](Cc1ccccc1)C(=O)N1CCC(C(=O)NCC(=O)O)CC1,-2.02
20,CCC(=O)c1ccc(OCc2ccc(C(=O)OC)cc2)c(OC)c1,54.6
21,CC(C)CC(=O)Nc1nnc(SCC(=O)NCC2CCCO2)s1 (stereo not drawn),3.28
22,O=Cc1cccc(OCc2cccc3ccccc23)c1,26.4
23,CC(C)c1ccc(Cc2nnc(NCCCO)[nH]c2=O)cc1,-1.24

row,SMILES,inhibition [%]
1,COc1cc(OC)cc(C(=O)N(CN2CCCC2=O)c2ccccc2OC)c1,1.27
2,COC(=O)c1c(NC(=O)C2c3ccccc3Oc3ccccc32)sc(C)c1C,14.8
3,CC(OC(=O)c1ccc([N+](=O)[O-])o1)C(=O)NC1CCCCC1C (stereo not drawn),44.5
4,C=CCNC(=O)CCNS(=O)(=O)c1ccc(Br)cc1,1.6
5,O=c1[nH]c(/C=C/c2ccccn2)nc2ccccc12,-1.73
6,O=C(COC(=O)c1ccc(O)cc1O)c1ccc2c(c1)OCO2,91.8
7,O=C(NCCCN=C1NS(=O)(=O)c2ccccc21)c1ccc(F)cc1,-15.4
8,CC(=O)Nc1ccc(C(=O)N(C2=NC(C)CS2)c2ccc(Cl)cc2)cc1 (stereo not drawn),6.05
9,CCCCNC(=O)c1onc(CSc2ccccc2CC)c1C(=O)O,30.6
10,CN(C)c1ccc(/C=C(\NC(=O)c2ccccc2)C(=O)NCCCN2CCOCC2)cc1,0.97
11,NS(=O)(=O)c1ccc(CCNC(=O)C2Cc3ccccc3CN2C(=O)c2ccco2)cc1 (stereo not drawn),-8.08
12,COc1ccc(CONS(=O)(=O)c2ccc(NC(C)=O)cc2)cc1Cl,2.76
13,CC1=NN(c2ccccc2)C(=O)C1C(=O)c1ccc(Cl)cc1 (stereo not drawn),77.7
14,CC(C)C(=O)N(c1cc2sc(=O)oc2c2ccccc12)S(=O)(=O)c1cccs1,9.06
15,O=C(NN1C(=O)c2cc(Br)ccc2NC1c1ccccc1Cl)c1ccncc1 (stereo not drawn),38.6
16,CN(CC1CCCCO1)C(=O)c1cc(COc2ccc(F)cc2Cl)on1 (stereo not drawn),1.44
17,COc1ccc(-c2nc(CSCC(=O)NCCC3=CCCCC3)c(C)o2)cc1OC,-0.74
18,Cc1cc(C)n(-c2ccc(NC(=O)C3CCCCN3C(=O)c3sccc3C)cc2)n1 (stereo not drawn),1.17
19,CCOC(=O)c1ccc(S(=O)(=O)N2CCC(N3CCCCC3)CC2)cc1,-4.62
20,CN(C)CCOc1ccc2c(c1)Sc1ccccc1CC2=O,-1.92
21,CC1=CC=CC2=NC(=O)CC(C)(C(=O)N(CC(=O)NC(C)C)C3CCCC3)N12 (stereo not drawn),-2.71
22,COC(=O)c1ccccc1NC(=O)c1noc2c1CC(C(C)(C)C)CC2 (stereo not drawn),-7.03
23,Cc1nc2ncnn2c(C)c1CCC(=O)NCc1ccc2c(c1)OCO2,0.86

row,SMILES,inhibition [%]
1,NC(=O)CSc1nnc(NC(=O)C23CC4CC(CC(C4)C2)C3)s1,62.1
2,COc1ccc(S(=O)(=O)Oc2ccccc2C(=S)N2CCOCC2)cc1,2.54
3,CCC(Sc1nc2cc(OC)c(OC)cc2c(=O)n1Cc1ccco1)C(=O)NCCOC (stereo not drawn),-17.8
4,CC1CCCC(NC(=O)COC(=O)c2cccc(NS(=O)(=O)/C=C/c3ccccc3)c2)C1C (stereo not drawn),44.3
5,Cc1cc(S(=O)(=O)N2CCCC2)c(C)s1,3.51
6,CC1(C)CN=C(Nc2nc3ccccc3s2)S1,36.7
7,COCCNC(=O)c1cc2cc(Br)cc(OC)c2oc1=O,-6.39
8,CCOc1ccc2nc(N(CCN(C)C)C(=O)c3cc4ccccc4cc3OC)sc2c1,49.6
9,COc1ccc(C(=O)OCC(=O)c2ccccc2)cc1S(=O)(=O)N1CCOCC1,5.04
10,O=C(CSc1nnc(CNC(=O)c2cccc(C(F)(F)F)c2)o1)NCc1ccco1,2.16
11,C/C(=N\O)C(C)(C)NC(=O)Nc1ccc(Cl)cc1,-3.12
12,CCOC(=O)C(NC(=O)c1ccc(OC)cc1)(N1CCOCC1)C(F)(F)F (stereo not drawn),-4.78
13,Cc1ccc(NC(=O)C2CCCN2S(=O)(=O)c2ccc3c(c2)CCC(=O)N3)cc1Cl (stereo not drawn),-1.14
14,Cc1ccccc1NS(=O)(=O)c1ccc(C)c(C(=O)N2CCOCC2)c1,-2.74
15,CCn1cc(CN2CCC(n3nccc3NC(=O)Cc3ccccc3)CC2)cn1,5.99
16,COc1ccc(Nc2nc(N3CCCCC3)nc(N3CCCCC3)n2)c(OC)c1,-2.26
17,Cc1ccc(/C=N/NC(=O)c2cccnc2)s1,4.58
18,CCOC(=O)c1sc(NC(=O)c2ccoc2C)c(C(N)=O)c1C,4.12
19,COC(=O)c1ccc(Oc2c(C)oc3c(CN4CCN(C)CC4)c(O)ccc3c2=O)cc1,-1
20,CCc1cc(CNC(=O)C2CCC(=O)N(CCc3ccc(OC)cc3)C2)on1 (stereo not drawn),-3.22
21,CN(c1ccc(C(=O)Nc2cccc(O)c2)cc1)S(=O)(=O)c1ccccc1,6.66
22,COc1cccc(/C=N/n2c(COc3ccccc3)n[nH]c2=S)c1O,-2.85
